# Reference: patent US5827073A, “Photoreactive peptide derivatives” (Ludwig Institute for Cancer Research, priority 1995, dated 1998)
# Test system: HLA-A1
# Test: HLA-A1 photoaffinity labelling of HLA-A1 transfected C1R cells with radioiodinated peptide derivative
# Format: binding, human
# Settings: densitometry
# Experimental: All photoaffinity labelling procedures were performed essentially as described by Luescher et al., J. Immunol., 148:1003-011 (1992); Luescher et al., Nature, 351:72-74 (1991); Romero et al., J. Exp. Med., 177:1247-1256 (1993); Luescher et al., J. Biol. Chem., 269:5574-5592 (1994); and Romero et al., J. Immunol. Methods, 171:73-84 (1994). Briefly, HLA-A1 transfected C1R cells, cultured in hygromycin containing medium, or other cell types were resuspended in DMEM medium supplemented with 0.5% fetal calf serum, 10 mM HEPES and 0.25 μg/ml human β2-microglobulin, or as specified, at 6 ×10^6 cells/ml. […]
# After UV irradiation with a 15 W mercury fluorescence lamp with an emission maximum at 365 nm and a band width of 80 nm for 4 minutes at a lamp-sample distance of 2 cm, the cells were washed 4 times with DMEM containing 2% calf serum and 1 time with PBS. […] Immunoprecipitation of HLA molecules with immobilized W6/32 mAb (Brodsky et al., J. Immunol., 128:129-135 (1982) and SDS-PAGE analysis of the immunoprecipitate were performed as described by Luescher et al., Electrophoresis, 8:508 (1987). The gels were evaluated by autoradiography and in some experiments by densitometry as described by Luescher et al., J. Immunol., 148:1003-1011 (1992). Each labelling experiment was performed at least twice. […]
substance,measurement,setting,value
"Glu Ala Asp Pro Thr Gly Xaa Ile [SEQ ID NO: 7, MAGE-1 peptide derivative as printed]",increase of binding to C1R/A1-associated HLA-A1,presence of excess exogenous human β2-microglobulin,3.3 fold
same,increase of binding to C1R/A1-associated HLA-A1,reduced temperature (26° C. vs 37° C.),2.3 fold
